The full ranking holds about 81,000 sequences; the median of “one-hybrid fitness for binding parS DNA” is about -0.17, and the highest 2% start at about 0.51. The list shows a part of the results.
B1: Caulobacter ParB omega fusion; a variant is named by its letters at X, in order, B8GW30 (parent)
chain: MESVVVGEPGMSEGRRGLGRGLSALLGEVDAAPAQAPGEQLGGSREAPIEILQRNPDQPRRTFREEDLEDLSNSIREKGVLQPILVRPSPDTAGEYQIVAGERAWRAAQRAGLKTVPIMVRELDDLAVLEIGIIENVQRADLNVLEEALSYKVLMEKFERTQENIAQTIGKSXSHVANXMRLLXLPDEVQSYLVSGELTAXHARAIAAAADPVALAKQIIEGGLSVRETEALARKAPNLSAGKSKGGRPPRVKDTDTQALESDLSSVLGLDVSIDHRGSTGTLTITYATLEQLDDLCNRLTRGI

Variants of: B1
Test: one-hybrid fitness for binding parS DNA (scaled: cognate 1, non-cognate 0); higher = stronger binding
Details: with parS DNA site
Method in brief: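 On M9-minus-histidine containing 0.1 mM IPTG and 5 mM 3-AT, E. coli USO cells with a HIS3 reporter, site 19 bp from the promoter, grew 48 hours at 37°C to select Caulobacter ParB libraries randomised at four specificity codons. Plasmids from before and after were Illumina-sequenced, with three replicate libraries pooled and variants under 10 reads left out. Fitness is the log change in variant-to-wild-type read ratio, rescaled against cognate and non-cognate.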

WSLL and AMNC cannot be ordered by “one-hybrid fitness for binding parS DNA” value: no more than 0.2 for the first, no more than 0.2 for the second.

WLAL and HVPL cannot be ordered by “one-hybrid fitness for binding parS DNA” value: no more than 0.2 for the first, no more than 0.2 for the second.

THNH and ALIF cannot be ordered by “one-hybrid fitness for binding parS DNA” value: no more than 0.2 for the first, no more than 0.2 for the second.

YLCV and AGIC cannot be ordered by “one-hybrid fitness for binding parS DNA” value: no more than 0.2 for the first, no more than 0.2 for the second.

GHDL and QPWR cannot be ordered by “one-hybrid fitness for binding parS DNA” value: no more than 0.2 for the first, no more than 0.2 for the second.

GVMR and LDKG cannot be ordered by “one-hybrid fitness for binding parS DNA” value: no more than 0.2 for the first, no more than 0.2 for the second.

SGNG and GTPS cannot be ordered by “one-hybrid fitness for binding parS DNA” value: no more than 0.2 for the first, no more than 0.2 for the second.

RNGR and SQMY cannot be ordered by “one-hybrid fitness for binding parS DNA” value: no more than 0.2 for the first, no more than 0.2 for the second.

EVCR and RPWW cannot be ordered by “one-hybrid fitness for binding parS DNA” value: no more than 0.2 for the first, no more than 0.2 for the second.

QDPC and LAAR cannot be ordered by “one-hybrid fitness for binding parS DNA” value: no more than 0.2 for the first, no more than 0.2 for the second.

Going from RRST to AVWL, the “one-hybrid fitness for binding parS DNA” value falls from 0.54 to no more than 0.2.

HVDQ and TGME cannot be ordered by “one-hybrid fitness for binding parS DNA” value: no more than 0.2 for the first, no more than 0.2 for the second.

ATPS and HIQR cannot be ordered by “one-hybrid fitness for binding parS DNA” value: no more than 0.2 for the first, no more than 0.2 for the second.

PKHC and TYLS cannot be ordered by “one-hybrid fitness for binding parS DNA” value: no more than 0.2 for the first, no more than 0.2 for the second.

QGIP and QYKV cannot be ordered by “one-hybrid fitness for binding parS DNA” value: no more than 0.2 for the first, no more than 0.2 for the second.

VSHK and ILMS cannot be ordered by “one-hybrid fitness for binding parS DNA” value: no more than 0.2 for the first, no more than 0.2 for the second.

TRAD and QQQC cannot be ordered by “one-hybrid fitness for binding parS DNA” value: no more than 0.2 for the first, no more than 0.2 for the second.

QGRY and QAET cannot be ordered by “one-hybrid fitness for binding parS DNA” value: no more than 0.2 for the first, no more than 0.2 for the second.

ANCV and ALHF cannot be ordered by “one-hybrid fitness for binding parS DNA” value: no more than 0.2 for the first, no more than 0.2 for the second.

RSGD and VTLY cannot be ordered by “one-hybrid fitness for binding parS DNA” value: no more than 0.2 for the first, no more than 0.2 for the second.

TTMM and YSRI cannot be ordered by “one-hybrid fitness for binding parS DNA” value: no more than 0.2 for the first, no more than 0.2 for the second.

FSEN and NKMR cannot be ordered by “one-hybrid fitness for binding parS DNA” value: no more than 0.2 for the first, no more than 0.2 for the second.

TRSL and IMMI cannot be ordered by “one-hybrid fitness for binding parS DNA” value: no more than 0.2 for the first, no more than 0.2 for the second.

PKLI and AHMR cannot be ordered by “one-hybrid fitness for binding parS DNA” value: no more than 0.2 for the first, no more than 0.2 for the second.

NMIY and HNRD cannot be ordered by “one-hybrid fitness for binding parS DNA” value: no more than 0.2 for the first, no more than 0.2 for the second.

Compared with QCDK, RCEA is higher in “one-hybrid fitness for binding parS DNA” value: no more than 0.2 for the first, 0.515 for the second.

RFMD and NTRK cannot be ordered by “one-hybrid fitness for binding parS DNA” value: no more than 0.2 for the first, no more than 0.2 for the second.

KNPK and HAHW cannot be ordered by “one-hybrid fitness for binding parS DNA” value: no more than 0.2 for the first, no more than 0.2 for the second.

SINL and PVNE cannot be ordered by “one-hybrid fitness for binding parS DNA” value: no more than 0.2 for the first, no more than 0.2 for the second.

Compared with SFPD, MTEE is higher in “one-hybrid fitness for binding parS DNA” value: no more than 0.2 for the first, 0.294 for the second.

EHDA and QGTR cannot be ordered by “one-hybrid fitness for binding parS DNA” value: no more than 0.2 for the first, no more than 0.2 for the second.

QTQE and DMMS cannot be ordered by “one-hybrid fitness for binding parS DNA” value: no more than 0.2 for the first, no more than 0.2 for the second.

WCNG and YGAV cannot be ordered by “one-hybrid fitness for binding parS DNA” value: no more than 0.2 for the first, no more than 0.2 for the second.

QILQ and WRKS cannot be ordered by “one-hybrid fitness for binding parS DNA” value: no more than 0.2 for the first, no more than 0.2 for the second.

PMWR and TSPV cannot be ordered by “one-hybrid fitness for binding parS DNA” value: no more than 0.2 for the first, no more than 0.2 for the second.

LWTS and RHMP cannot be ordered by “one-hybrid fitness for binding parS DNA” value: no more than 0.2 for the first, no more than 0.2 for the second.

SDVG and KIHG cannot be ordered by “one-hybrid fitness for binding parS DNA” value: no more than 0.2 for the first, no more than 0.2 for the second.

RLMD and YTGI cannot be ordered by “one-hybrid fitness for binding parS DNA” value: no more than 0.2 for the first, no more than 0.2 for the second.

From a collection of fitness landscapes (doi:10.1016/j.celrep.2020.107928)
